Laboratory results from ChEMBL document CHEMBL3045800 (2003).

Tested on: Oryza sativa
Assay: Induction of systemic acquired resistance against Pyricularia oryzae-induced Oryza sativa (rice) blast disease in 2.1 leaf stage Oryza sativa plants Oryza sativa cv. Nipponbare seedlings pre-treated with soil drench application of compound seven days before fungal inoculation assessed as compound level per pot causing protection against blast lesions disease development measured 7 days post fungal inoculation under green house conditions

SMILES	Activity
CSC(=O)c1cccc2nnsc12	Dose-dependent effect
C=CCOC1=NS(=O)(=O)c2ccccc21	Dose-dependent effect
Cn1nc(Cl)cc1C(=O)O [3-CHLORO-1-METHYL-1H-PYRAZOLE-5-CARBOXYLIC ACID]	Dose-dependent effect
